In all, about 150,000 compounds went through this assay and about 540 (0.36%) showed an effect of 50% or more. This is one part of the list.
The compounds below were run on Plasmodium falciparum (assay: Primary screen in NF54 nanoGlo assay, in single point, at 2uM, 72h; a lower Z score goes with more inhibition). Settings: timepoint 72 hour.
Format: functional, Erythrocyte

SMILES	% Inhibition [%]	Z score
Cc1nnc2c(N3CCC(NC(=O)[C@H](C)Oc4ccccc4)CC3)nccn12	-8	1.57
Cc1cccnc1C[C@H](C)n1cc(-c2ncc[nH]2)nn1	2	-0.33
CCCc1cc(C(=O)N[C@@H]2c3ccccc3C[C@H]2NC(C)=O)[nH]n1	-1	0.11
COC[C@H](C)N(Cc1cccc(F)c1)C(=O)c1ccc(-n2cnnc2)nc1	6	-0.82
Cc1nc(C)c(C(=O)NC2CCCC2)o1	-13	1.7
CCC1(NC(=O)c2[nH]nc(C(F)(F)F)c2C)CCC1	-8	0.94
COc1ccccc1S(=O)(=O)N1CCC(=C2CC2)CC1	-19	2.16
Cc1cccc(C(=O)N2CCC[C@@]3(CCN(Cc4sc(C)nc4C)C3)C2)c1	-9	1.46
CC1(C)C(=O)NCCN1C(=O)c1cccs1	-5	1.02
Cc1cc(=O)c(C(=O)N2CCN(c3cccc(Cl)c3)CC2)c(CC2CCCC2)n1C	-2	0.21
CCCC1(CCC)NC(=O)N(CC(=O)NCC(=O)Nc2ccccc2CC)C1=O	6	-1.18
CC(C)N(Cc1ccon1)CC(C)(C)O	-5	0.74
Cc1cccc(CC(=O)N[C@H](c2cccnc2)C2CCOCC2)c1	-1	0.11
FC(F)(F)c1cc(NCC2CC2)ncn1	-8	1.26
CCc1ncc(C(=O)N2CCC[C@H]2C(=O)N2CCCCC2)cn1	-11	1.4
O=C(NCC1(O)CCOCC1)c1ccc(Cl)cn1	29	-3.22
C[C@@H](N)c1c(Cl)ccc(F)c1Cl	5	-0.74
N#Cc1ccccc1-c1ccccc1C(=O)N[C@H](CO)CN1CCCCC1	-3	0.49
COc1ccc(Cc2nc(NC(=O)CCNc3ncccn3)n[nH]2)cc1	-9	1.1
CCCn1nc(C)c(Cn2ccnc2[C@H]2CCOC(C)(C)C2)c1C	-15	1.37
OC[C@@H]1C[C@H](O)CN1C[C@H](O)c1ccc(-c2ccc(Br)cc2)cc1	-1	0.24
Cc1ccc(OC2CCN(C(=O)CCC3CCCC3)CC2)nn1	-8	1.51
O=S(=O)(Nc1cncc(N2CCCC2)n1)c1cncc(F)c1	-6	0.96
Cc1nc(C(=O)N(C)CCCN(C)C(=O)OC(C)(C)C)c(C)o1	-3	0.44

— ChEMBL document CHEMBL4888484, “Replenishing the malaria drug discovery pipeline: Screening and hit evaluation of the MMV Hit Generation Library 1 (HGL1) against asexual blood stage Plasmodium falciparum ,using a nano luciferase reporter read-out” (2022)
